This is one part of the list. The full chains were built here from the parent and the listed change. Inactive controls read about 0.05.
B1: TEV protease; numbered along this chain (parent)
chain: MGESLFKGPRDYNPISSSICHLTNESDGHTTSLYGIGFGPFIITNKHLFRRNNGTLVVQSLHGVFKVKDTTTLQQHLVDGRDMIIIRMPKDFPPFPQKLKFREPQREERICLVTTNFQTKSMSSMVSDTSCTFPSGDGIFWKHWIQTKDGQCGSPLVSTRDGFIVGIHSASNFTNTNNYFTSVPKNFMELLTNQEAQQWVSGWRLNADSVLWGGHKVFMVKPEEPFQPVKEATQL

Variants of: B1
Experiment: raw area under fraction-flipped curve 0-4 h after induction (AUC4h, not background-subtracted), DNA-recorder readout of cleavage of the substrate (dimensionless); higher = more cleavage of the substrate by the protease variant
Settings: temperature: 34 °C; time window: 0-4 h after rhamnose induction
Method: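 In vivo DNA recorder in E. coli TOP10(DE3) ΔrhaA at 34 °C. Each TEVp single-site mutant (parent TEVp 0) is paired with a single-site variant of the 7-mer TEVs (canonical ENLYFQ|S). The substrate sits between flexible linkers in a Bxb1-sfGFP-TEVs-SsrA fusion, so cleavage stabilises Bxb1 and speeds flipping of a recombination array, read by NGS. The value is the raw area under the fraction-flipped curve over 0-4 h after rhamnose induction (AUC4h), with ≥20 reads per time point. It is not background-subtracted; inactive controls average about 0.047.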
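Note: Bxb1 expression induced with 0.2% (w/v) L-rhamnose at OD600 near 0.5, cultures sampled hourly, flipped fraction per protease–substrate barcode pair counted by paired-end Illumina sequencing.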

| Variant | area with substrate ENLYFAS | area with substrate ENLYFCS | area with substrate ENLYFDS | area with substrate ENLYFES | area with substrate ENLYFFS | area with substrate ENLYFGS | area with substrate ENLYFHS | area with substrate ENLYFIS | area with substrate ENLYFKS | area with substrate ENLYFMS | area with substrate ENLYFNS | area with substrate ENLYFPS | area with substrate ENLYFRS | area with substrate ENLYFSS | area with substrate ENLYFTS | area with substrate ENLYFWS | area with substrate ENLYFLS | area with substrate ENLYFVS | area with substrate ENLYFYS |
| --- | --- | --- | --- | --- | --- | --- | --- | --- | --- | --- | --- | --- | --- | --- | --- | --- | --- | --- | --- |
| MGERLFKGPRDYNPISSSICHLTNESDGHTTSLYGIGFGPFIITNKHLFRRNNGTLVVQSLHGVFKVKDTTTLQQHLVDGRDMIIIRMPKDFPPFPQKLKFREPQREERICLVTTNFQTKSMSSMVSDTSCTFPSGDGIFWKHWIQTKDGQCGSPLVSTRDGFIVGIHSASNFTNTNNYFTSVPKNFMELLTNQEAQQWVSGWRLNADSVLWGGHKVFMVKPEEPFQPVKEATQL [S4R] | 0.0594 | 0.0626 | 0.0572 | 0.123 | 0.0728 | 0.0571 | 0.0642 | 0.0514 | 0.0635 | 0.0689 | 0.0638 | 0.0532 | 0.0554 | 0.0522 | 0.0586 | 0.041 | – | – | – |
| MGEGLFKGPRDYNPISSSICHLTNESDGHTTSLYGIGFGPFIITNKHLFRRNNGTLVVQSLHGVFKVKDTTTLQQHLVDGRDMIIIRMPKDFPPFPQKLKFREPQREERICLVTTNFQTKSMSSMVSDTSCTFPSGDGIFWKHWIQTKDGQCGSPLVSTRDGFIVGIHSASNFTNTNNYFTSVPKNFMELLTNQEAQQWVSGWRLNADSVLWGGHKVFMVKPEEPFQPVKEATQL [S4G] | 0.0534 | 0.0544 | – | 0.0702 | 0.0687 | 0.042 | – | 0.0563 | 0.0584 | 0.0561 | 0.071 | 0.0607 | – | 0.0623 | 0.0557 | 0.0602 | 0.059 | 0.0516 | 0.0691 |
| MGESLFKGPRDYGPISSSICHLTNESDGHTTSLYGIGFGPFIITNKHLFRRNNGTLVVQSLHGVFKVKDTTTLQQHLVDGRDMIIIRMPKDFPPFPQKLKFREPQREERICLVTTNFQTKSMSSMVSDTSCTFPSGDGIFWKHWIQTKDGQCGSPLVSTRDGFIVGIHSASNFTNTNNYFTSVPKNFMELLTNQEAQQWVSGWRLNADSVLWGGHKVFMVKPEEPFQPVKEATQL [N13G] | 0.0678 | 0.0623 | 0.057 | 0.0667 | 0.0699 | 0.0652 | 0.0568 | 0.0635 | 0.0733 | 0.0532 | 0.0618 | 0.0564 | 0.0662 | 0.072 | 0.0458 | 0.0554 | 0.0676 | 0.0578 | 0.0594 |
| MGESLFKGPRDYRPISSSICHLTNESDGHTTSLYGIGFGPFIITNKHLFRRNNGTLVVQSLHGVFKVKDTTTLQQHLVDGRDMIIIRMPKDFPPFPQKLKFREPQREERICLVTTNFQTKSMSSMVSDTSCTFPSGDGIFWKHWIQTKDGQCGSPLVSTRDGFIVGIHSASNFTNTNNYFTSVPKNFMELLTNQEAQQWVSGWRLNADSVLWGGHKVFMVKPEEPFQPVKEATQL [N13R] | 0.0547 | 0.0675 | – | 0.0585 | 0.0717 | – | 0.0588 | 0.0687 | 0.0604 | 0.0622 | 0.0567 | 0.0647 | 0.0588 | 0.0622 | 0.0559 | 0.0586 | – | 0.0644 | – |
| MGESLFKGPRDYKPISSSICHLTNESDGHTTSLYGIGFGPFIITNKHLFRRNNGTLVVQSLHGVFKVKDTTTLQQHLVDGRDMIIIRMPKDFPPFPQKLKFREPQREERICLVTTNFQTKSMSSMVSDTSCTFPSGDGIFWKHWIQTKDGQCGSPLVSTRDGFIVGIHSASNFTNTNNYFTSVPKNFMELLTNQEAQQWVSGWRLNADSVLWGGHKVFMVKPEEPFQPVKEATQL [N13K] | 0.042 | 0.0649 | 0.0727 | 0.0543 | 0.0611 | 0.0595 | 0.0615 | 0.0568 | 0.0587 | 0.0622 | 0.0624 | 0.0634 | 0.0496 | 0.0605 | 0.0606 | 0.0578 | 0.0629 | 0.0509 | 0.0603 |
| MGESLHKGPRDYNPISSSICHLTNESDGHTTSLYGIGFGPFIITNKHLFRRNNGTLVVQSLHGVFKVKDTTTLQQHLVDGRDMIIIRMPKDFPPFPQKLKFREPQREERICLVTTNFQTKSMSSMVSDTSCTFPSGDGIFWKHWIQTKDGQCGSPLVSTRDGFIVGIHSASNFTNTNNYFTSVPKNFMELLTNQEAQQWVSGWRLNADSVLWGGHKVFMVKPEEPFQPVKEATQL [F6H] | 0.035 | – | 0.053 | – | 0.0719 | – | – | 0.0539 | 0.0727 | – | – | 0.058 | – | – | 0.0546 | – | – | – | – |
| MGESLFKGPCDYNPISSSICHLTNESDGHTTSLYGIGFGPFIITNKHLFRRNNGTLVVQSLHGVFKVKDTTTLQQHLVDGRDMIIIRMPKDFPPFPQKLKFREPQREERICLVTTNFQTKSMSSMVSDTSCTFPSGDGIFWKHWIQTKDGQCGSPLVSTRDGFIVGIHSASNFTNTNNYFTSVPKNFMELLTNQEAQQWVSGWRLNADSVLWGGHKVFMVKPEEPFQPVKEATQL [R10C] | 0.049 | 0.0577 | 0.0514 | – | 0.0628 | – | 0.065 | 0.0512 | 0.0524 | 0.0691 | – | 0.0657 | – | 0.0245 | 0.0528 | 0.0524 | – | 0.0398 | 0.0524 |
| MGESLFKGPVDYNPISSSICHLTNESDGHTTSLYGIGFGPFIITNKHLFRRNNGTLVVQSLHGVFKVKDTTTLQQHLVDGRDMIIIRMPKDFPPFPQKLKFREPQREERICLVTTNFQTKSMSSMVSDTSCTFPSGDGIFWKHWIQTKDGQCGSPLVSTRDGFIVGIHSASNFTNTNNYFTSVPKNFMELLTNQEAQQWVSGWRLNADSVLWGGHKVFMVKPEEPFQPVKEATQL [R10V] | 0.0557 | 0.0693 | 0.0676 | 0.0648 | – | 0.0564 | – | 0.0583 | 0.0879 | 0.066 | 0.062 | 0.0642 | – | 0.0576 | 0.0708 | 0.0561 | – | 0.0687 | 0.0557 |
| MGESLFKGPGDYNPISSSICHLTNESDGHTTSLYGIGFGPFIITNKHLFRRNNGTLVVQSLHGVFKVKDTTTLQQHLVDGRDMIIIRMPKDFPPFPQKLKFREPQREERICLVTTNFQTKSMSSMVSDTSCTFPSGDGIFWKHWIQTKDGQCGSPLVSTRDGFIVGIHSASNFTNTNNYFTSVPKNFMELLTNQEAQQWVSGWRLNADSVLWGGHKVFMVKPEEPFQPVKEATQL [R10G] | 0.0532 | 0.0585 | – | 0.0596 | 0.0664 | – | 0.031 | 0.0563 | 0.071 | 0.0652 | 0.0562 | 0.0621 | 0.0612 | 0.0586 | 0.0622 | 0.0551 | – | 0.0429 | 0.0636 |
